# Data taken from the supplement of paper PMC5919970.
# Counter-ions that a name gives are not always drawn. Whole data set: some 2,000 compounds, median “fractional viability relative to vehicle” near 0.91, cut for the lowest 2% near 0.045. Some of the results follow.
# Test system: TYKNU
# Assay: fractional viability relative to vehicle; TYKNU is a high-grade serous ovarian cancer line; higher = less growth inhibition
# Details: 72 h
# Procedure, shortened: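 Drug treatment lasted 72 h, with cells grown at 37 °C in 5% CO2 in RPMI 1640 supplemented with 10% FBS. Beforehand, TYKNU control cells or their lentiCRISPRv2 knockout derivatives had been seeded at 500 cells per well into drug-stamped 384-well plates carrying a ~2100-compound library at 2 or 10 μM, in duplicate. Viability came from Cell Titer Glo luminescence, with averaged duplicate treatment wells normalised to duplicate control wells in the same plate position.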
# [1] = 2uM, genotype: DNM1L knockout (sgDNM1L #1)
# [2] = 2uM, genotype: sgCTRLA1 (non-targeting control)
# [3] = 10uM, genotype: DNM1L knockout (sgDNM1L #1)
# [4] = 10uM, genotype: sgCTRLA1 (non-targeting control)
SMILES,fractional viability [1],fractional viability [2],fractional viability [3],fractional viability [4]
CC(C)(C)C(=O)OCOP(=O)(COCCn1cnc2c(N)ncnc21)OCOC(=O)C(C)(C)C [Adefovir Dipivoxil],0.499,0.674,0.356,0.34
COc1ccccc1N1CCN(CC(O)COc2cccc3ccccc23)CC1 (stereo not given) [Naftopidil],0.876,0.972,0.486,0.735
COc1ccccc1N1CCN(CC(O)COc2cccc3ccccc23)CC1 (stereo not given) [Naftopidil DiHCl],0.903,0.919,0.527,0.678
CN1CCC(=C2c3ccccc3CC(=O)c3sccc32)CC1 [Ketotifen Fumarate],0.927,1.03,0.968,0.936
Nc1nc(N)c2nc(-c3cccc(O)c3)cnc2n1,1.09,0.963,0.394,0.428
O=C(O)CC[C@H]1CC[C@@](c2cc(F)ccc2F)(S(=O)(=O)c2ccc(Cl)cc2)CC1,0.955,1.03,0.722,1.02
"C/C=C1\NC(=O)[C@H]2CSSCC/C=C/[C@H](CC(=O)N[C@H](C(C)C)C(=O)N2)OC(=O)[C@H](C(C)C)NC1=O [Romidepsin (FK228, Depsipeptide)]",0.0349,0.0303,0.0444,0.0308
C[C@@H](Oc1cc(-n2cnc3ccc(CN4CCN(C)CC4)cc32)sc1C(N)=O)c1ccccc1C(F)(F)F,0.325,0.284,0.2,0.153
CNCC[C@H](Oc1cccc2ccccc12)c1cccs1 [Duloxetine HCl],0.947,1.03,0.891,1.11
CC1(COc2ccc3c(c2)ncn3-c2ccc3cccc(N4CCC(N)CC4)c3n2)COC1,0.685,0.855,0.0673,0.0683
COc1ccccc1-c1cc(Nc2cccc(CS(N)(=O)=O)c2)ncn1,0.8,1.08,0.165,0.191
COc1ccc([C@H]2CNC(=O)C2)cc1OC1CCCC1 [S- (+)-Rolipram],0.962,1.01,0.904,1.06
COc1cc(Cc2cnc(N)nc2N)cc(OC)c1OC [Trimethoprim],0.906,1.22,0.693,1.09
COc1cc2c(cc1OC)CN(CCc1ccc(NC(=O)c3cc(OC)c(OC)cc3NC(=O)c3cnc4ccccc4c3)cc1)CC2 [Tariquidar],0.769,1.05,0.158,0.555
CC(=O)c1cc([N+](=O)[O-])c(Sc2cccc(Cl)c2Cl)s1,0.854,1.12,0.0691,0.0644
Cn1c(=O)c2[nH]cnc2n(C)c1=O [Aminophylline],0.97,1.07,0.913,1.05
CS(=O)(=O)c1ccc(C2=C(c3ccccc3)C(=O)OC2)cc1 [Rofecoxib],1.17,0.987,0.739,0.877
CC(C)[C@H](CO)Nc1nc(Nc2cccc(Cl)c2)c2ncn(C(C)C)c2n1 [Purvalanol A],0.743,0.938,0.254,0.324
Cc1[nH]c(=O)c(C#N)cc1-c1ccncc1 [Milrinone],0.934,1.08,0.802,1.02
Cc1ccnc2c1NC(=O)c1cccnc1N2C1CC1 [Nevirapine],1.01,1.04,0.654,1.06

SMILES,fractional viability [1],fractional viability [2],fractional viability [3],fractional viability [4]
CN(C)CCC=C1c2ccccc2CCc2ccccc21 [Amitriptyline HCl],1.06,1.21,0.651,0.995
O=C(Nc1ccccc1)c1ccccc1O [Salicylanilide],0.702,1.11,0.71,1.09
FC(F)(F)c1ccc(CNc2ccc(Cc3c[nH]c4ncc(Cl)cc34)cn2)cn1 [Pexidartinib (PLX3397)],0.815,1,0.88,0.756
CCc1nc(-c2cccc(C)c2)c(-c2ccnc(NC(=O)c3ccccc3)c2)s1,1.22,1.17,0.651,1.08
Cc1cccc(C)c1NC(=O)C1CCCCN1C (stereo not given) [Mepivacaine HCl],1.02,1.28,0.832,1.08
COc1cc(/C=C/C(=O)N2CCC=CC2=O)cc(OC)c1OC [Piperlongumine],0.302,0.319,0.0446,0.0292
Cc1ncc([N+](=O)[O-])n1CC(O)CCl (stereo not given) [Ornidazole],1.42,1.24,1.25,1.37
CN1C(C(=O)Nc2ccccn2)=C(O)c2sccc2S1(=O)=O [Tenoxicam],1.02,1.08,0.994,1.12
N=C(N)N [Guanidine HCl],0.965,1.12,0.73,1.16
Cc1c(C(N)=O)cc([N+](=O)[O-])cc1[N+](=O)[O-] [Dinitolmide],1.06,1.14,1.07,1.18
NS(=O)(=O)c1cc(C(=O)O)c(NCc2ccco2)cc1Cl [Furosemide],0.895,1.11,0.913,1.05
O=C(O)c1cc(=O)c2ccccc2o1 [Chromocarb],0.948,1.07,0.923,1.05
CCOc1cc([C@@H](CS(C)(=O)=O)N2C(=O)c3cccc(NC(C)=O)c3C2=O)ccc1OC,0.778,1,0.885,0.863
COc1cc(C(=O)NS(=O)(=O)c2ccccc2C)ccc1Cc1cn(C)c2ccc(NC(=O)OC3CCCC3)cc12 [Zafirlukast],1.01,1.09,0.94,1.03
CN[C@H]1CN(c2ccc3c(=O)c(C(=O)O)cn(-c4nccs4)c3n2)C[C@@H]1OC [Voreloxin (SNS-595)],0.465,0.517,0.319,0.177
Cc1cc(C2CCCCC2)n(O)c(=O)c1 [Ciclopirox ethanolamine],0.385,0.406,0.182,0.186
Cc1cc(C2CCCCC2)n(O)c(=O)c1 [Ciclopirox],0.413,0.429,0.172,0.193
CC1=C(C(=O)OC(C)C)C(c2cccc([N+](=O)[O-])c2)C(C(=O)OC2CN(C(c3ccccc3)c3ccccc3)C2)=C(N)N1 (stereo not given) [Azelnidipine],0.869,0.966,0.306,0.583
CCc1cncnc1N1CCN(Cc2nc3ccc(C(F)(F)F)cc3[nH]2)CC1,0.865,1,0.754,0.656
COc1ccc(-c2nc3cc(C4=NNC(=O)CC4C)ccc3[nH]2)cc1 (stereo not given) [Pimobendan],1.1,1.05,0.55,0.472

SMILES,fractional viability [1],fractional viability [2],fractional viability [3],fractional viability [4]
NCC(=O)Nc1ccc(-n2nc(C(F)(F)F)cc2-c2ccc3c(ccc4ccccc43)c2)cc1,0.713,0.617,0.0563,0.0497
CNS(=O)(=O)Cc1ccc2[nH]cc(CCN(C)C)c2c1 [Sumatriptan Succinate],0.993,1.18,0.947,0.947
O=c1c(O)c(-c2ccc(O)c(O)c2)oc2cc(O)ccc12 [Fisetin],1,1.16,0.99,1.03
COc1cc2ncnc(Oc3cccc(NC(=O)Nc4cc(C(C)(C)C(F)(F)F)on4)c3)c2cc1OC,0.673,0.784,0.384,0.248
O=C(COc1ccc(Cl)cc1)NC1CCC(NC(=O)COc2ccc(Cl)cc2)CC1 (stereo not drawn) [ISRIB (trans-isomer)],0.839,0.901,0.819,0.703
NS(=O)(=O)c1cc2c(cc1Cl)N=CNS2(=O)=O [Chlorothiazide],0.995,1.1,1.1,1.06
COc1ccc(-c2cnc3c(-c4cccc5ncccc45)cnn3c2)cc1,1.18,1.28,1.1,1.2
O=C(NCc1ccncc1)C12CC3CC(C1)CC(c1ccc(Cl)cc1)(C3)C2,0.946,0.963,0.585,0.797
CCOC(=O)[C@H](CCc1ccccc1)N[C@@H](C)C(=O)N1[C@H](C(=O)O)C[C@@H]2CCC[C@@H]21 [Ramipril],1.03,1.15,0.997,1.06
NC(=O)c1ncn([C@@H]2O[C@H](CO)[C@@H](O)[C@H]2O)n1 [Ribavirin],1.01,1.28,1.01,1.33
Cc1ccc(S(=O)(=O)n2c(N)nc3ccccc32)cc1 [ML130 (Nodinitib-1)],1.07,1.13,0.84,1.16
CC[C@H]1OC(=O)[C@H](C)[C@@H](O[C@H]2C[C@@](C)(OC)[C@@H](O)[C@H](C)O2)[C@H](C)[C@@H](O[C@@H]2O[C@H](C)C[C@H](N(C)C)[C@H]2O)[C@](C)(OC)C[C@@H](C)C(=O)[C@H](C)[C@@H](O)[C@]1(C)O [Clarithromycin],1.1,1.18,1.08,1.08
O=[N+]([O-])c1ccc2c(c1)S(=O)(=O)C=C2 [Stattic],0.0799,0.101,0.0327,0.0222
CCCCCCCCC/C(=C\C1=C(C)C(=O)C(OC)=C(OC)C1=O)C(=O)O,0.847,0.878,0.855,0.701
C[C@H]1COC2=C1C(=O)C(=O)c1c2ccc2c1CCCC2(C)C [Cryptotanshinone],0.306,0.399,0.0756,0.132
NC(=O)Cc1cccc(C(=O)c2ccccc2)c1N [Nepafenac],0.974,0.954,0.92,0.878
CN(C)CC[C@H](CSc1ccccc1)Nc1ccc(S(=O)(=O)NC(=O)c2ccc(N3CCN(Cc4ccccc4-c4ccc(Cl)cc4)CC3)cc2)cc1[N+](=O)[O-],0.917,0.97,0.544,0.956
Nc1ccccc1NC(=O)c1ccc(CNC(=O)OCc2cccnc2)cc1 [Entinostat (MS-275)],0.493,0.575,0.117,0.191
CCCCOc1c(C(=O)c2c(F)cc(C)cc2F)c[nH]c2nncc1-2,0.887,1.05,0.181,0.573
CN(C)C(=O)COC(=O)Cc1ccc(OC(=O)c2ccc(NC(=N)N)cc2)cc1 [Camostat Mesilate],1.06,1.15,0.849,1.06
